Test [1] deals with RA1 cells. Put plainly: Anti-tumor activity in a SCID/RA1 xenograft model of Burkitt's lymphoma (Example 11). It counts as in vivo, SCID mice. The note with it: for Mean Survival / Median Survival / Mice alive at the end of the study = day 81 / % Increased life span: 10 mg/kg, IV, Q4D × 6; for % Increased life span: ILS % = [(T-C)/C]×100 of median survival; for increase in survival rate in comparison with control mice: repeated treatment, p<0.001. The protocol: The therapeutic effect of test antibodies was evaluated in an animal model of Burkitt's lymphoma. In the model used, systemic cancer in SCID mice causes hind limb paralysis and infiltrates all major organs.
Forty-eight hours before tumor cell injection, female SCID mice (7-9 weeks old, weighing 17-22 g) were irradiated with a γ-source (1.8 Gy, ^60Co). […] The tumor bearing mice were distributed on D4 into 10 groups of 10 mice each based on body weight using Vivo Manager® software (Biosystemes, Dijon, France). […] Treatment started on D4: mice were administered intravenously a 5 mg/kg or a 10 mg/kg dose of test antibody on days 4, 8, 12, 16, 20 and 24. The vehicle for injection was 10 mM Na-Citrate, 150 mM NaCl, 50 mM Arginine (pH 5.5). Body weights were measured and recorded twice weekly. Mean survival time was calculated for each group as the mean of the day of death, and median survival time was calculated for each group as the median of the day of death. The efficacy of each test antibody was judged by the increased life span value (ILS). ILS % was expressed as follows: ILS %=[(T-C)/C]×100. T was the median of the survival times of animals treated with each test antibody, and C was the median survival time of control animals treated with vehicle.

In test [2] the test system is RA1 cells. Put plainly: Antibody-dependent cell-mediated cytotoxicity (ADCC), LDH release (Example 10). Type of test: cell-based, human. Conditions: E:T ratio 20:1. The protocol:
ADCC was measured with RA1 cells as the target cells (T) and using the CytoTox 96® Non-Radioactive Cytotoxicity Assay (Promega Corp., Fitchburg, Wis.)), which assay measures lactate dehydrogenase (LDH) release. A round-bottom 96-well culture plate was set up with the following control and experimental wells (100 microliter final volumes):
a. RA1 cells (for target cell spontaneous LDH release control) b. RA1 cells (for target cell maximum LDH release control) c. Culture medium (RPMI 1640 Medium (1X) without phenol red) used for volume correction control d. Culture medium (for culture medium background control) e. RA1 plus effector cells (E) (for target plus effector cell spontaneous LDH release control) f. Experimental wells with effector and target cells (10^5) with serial dilutions of each test IgG or without test IgG.
The plates were centrifuged at 1600 rpm for 2 minutes and incubated at 37° C. for 4 hours. One hour prior to supernatant harvest, 20 microliters of Lysis Solution (10×) were added to the conditions b) and c). The plates were centrifuged at 1600 rpm for 2 minutes, and 50 microliters of the supernatant from each well of the assay plates were transferred to corresponding wells of a flat-bottom 96-well enzymatic assay plate. Substrate Mix (50 microliters) was added to each well of the latter plate, and the plate (protected from light) was incubated for 30 minutes at room temperature. Finally, 50 microliters of Stop Solution were added to each well, and absorbance (OD values) was measured at 490 nm. Each condition was tested in triplicates.
Preliminary experiments had been conducted in order to determine the optimal E:T ratio. The data shown below were obtained at a 20:1 E:T ratio with 10^5 RA1 target cells. The effector cells used in this study were prepared as follows: human peripheral blood mononuclear cells (PBMCs) obtained from a healthy donor were isolated by means of density gradient centrifugation using Lymphocyte Separation Medium (ref. J15-004, Invitrogen Corp., Carlsbad, Calif.). PBMCs at 2×10^6 per mL were cultured for two days in RPMI 1640 with 10% FCS, penicillin/streptomycin and 100 units per mL of human recombinant IL-2 (obtained from Roussel-Uclaf) in a 37° C. humidified incubator (5% CO2).
ADCC percentages obtained at different concentrations of test IgGs were calculated with the formula % ADCC=(f−e)/(b−a)×100, i.e., % ADCC=(OD of Target+Effector cells +/−Test Mab −OD of Spontaneous Release of Target+Effector cells)/(OD Maximal Release Target cells −OD Spontaneous Release of Target cells)×100.

Test [3] has as its target T1, hCXCR4 (Homo sapiens, UniProt P61073).
T1 construct: expressed in transfected cells; host or cells: R1610, Cf2Th, CHO
Put plainly: Specificity for CXCR4, flow cytometry on lines transfected to over-express CXCR4 (Example 6). Conditions: test IgG at 100 nM. Type of test: binding. The protocol:
Cells over-expressing different GPCRs other than CXCR4 and several lines transfected to over-express CXCR4 (R1610-hCXCR4, Cf2Th-hCXCR4 and CHO-hCXCR4) were compared. Cultures were incubated with a test IgG at 100 nM in FACS buffer for 40 min at 4° C. Thereafter, cells were washed twice, stained with anti-human-Fc antibody-PE conjugate (Jackson Immunoresearch Laboratories Inc., West Grove, Pa.), washed twice in FACS buffer and then transferred to FIX buffer. Fluorescence intensities were measured by GUAVA PCA-96 at 425V (in triplicate).
The expression of GPCRs other than CXCR4 was confirmed using commercially available antibodies (positive controls). For example, a commercial anti-CXCR1 antibody was used as a positive control for confirming the expression of CXCR1 on the CXCR1-transfected CHO cells.

T1 sequence (P61073 whole entry): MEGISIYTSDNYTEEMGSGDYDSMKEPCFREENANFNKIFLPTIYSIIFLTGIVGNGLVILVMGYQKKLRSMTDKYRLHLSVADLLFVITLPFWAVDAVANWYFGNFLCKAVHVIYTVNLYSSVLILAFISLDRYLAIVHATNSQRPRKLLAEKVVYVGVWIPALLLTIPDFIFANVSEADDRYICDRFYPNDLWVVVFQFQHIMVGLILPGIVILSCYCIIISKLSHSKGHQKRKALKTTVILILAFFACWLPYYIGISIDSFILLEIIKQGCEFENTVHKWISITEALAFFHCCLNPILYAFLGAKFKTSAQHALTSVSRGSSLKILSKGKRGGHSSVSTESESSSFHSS

B1: V62.1: anti-CXCR4 antibody from Fab phage library; LCVR SEQ ID NO 13, HCVR SEQ ID NO 15 (antibody, V domains shown)
VH: [no letters for about 100 residues]QGKTRVYGYRWHGYGSTHALDYWGQGTLVTVSS
VL: EIVLTQSPGTLSLSPGERATLSCRASQSVSSSYLAWYQQKPGQAPRLLIYGASSRATGIPDRFSGSGSGTDFTLTISRLEPEDFAVYYCQQSDYSYPFTFGQGTKVEIKRT
modifications: heavy chain variable region HCVR, variant 1; light chain variable region LCVR, variant 1
Regarding B1, in test [1], the “Mean Survival” value is 61 days. Moreover, the “Median Survival” value in test [1] is 61 days. Besides, the “Mice alive at the end of the study = day 81” value in test [1] is listed as 0/10. Also, the “% Increased life span” value in test [1] worked out at 126%. The “increase in survival rate in comparison with control mice” value in test [1] is on record as 2 fold. Also, the ADCC percentage in test [2] (0.0001 μg/mL) came to 8%; in test [2] (0.001 μg/mL) it was 28%; in test [2] (0.01 μg/mL), 45%; in test [2] (0.1 μg/mL) it was 44%; in test [2] (1 μg/mL) it was 45%. In addition, the MFI in test [3] (cell line CHO-hCXCR4) was determined as 2053; in test [3] (cell line R1610-hCXCR4) it was 812.

B2: V62.1-R108H: matured anti-CXCR4 antibody, point mutation R108H in CDR3H; LCVR SEQ ID NO 13, HCVR SEQ ID NO 16 (antibody, V domains shown)
VH: [no letters for about 100 residues]QGKTRVYGYHWHGYGSTHALDYWGQGTLVTVSS
VL: EIVLTQSPGTLSLSPGERATLSCRASQSVSSSYLAWYQQKPGQAPRLLIYGASSRATGIPDRFSGSGSGTDFTLTISRLEPEDFAVYYCQQSDYSYPFTFGQGTKVEIKRT
modifications: heavy chain variable region HCVR, variant 2; light chain variable region LCVR, variant 1
On to B2, for which the “Mean Survival” value in test [1] is 60 days. Further, the “Median Survival” value in test [1] is on record as 59 days. For the same molecule, the “Mice alive at the end of the study = day 81” value in test [1] was 1/10. For the same molecule, in test [1], the “% Increased life span” value was 119%. Besides, the “increase in survival rate in comparison with control mice” value in test [1] is 2 fold. Further, the ADCC percentage in test [2] (0.0001 μg/mL) amounted to 8%; in test [2] (0.001 μg/mL), 15%; in test [2] (0.01 μg/mL) it was 23%; in test [2] (0.1 μg/mL), 57%; in test [2] (1 μg/mL) it was 59%. Further, the MFI in test [3] (cell line CHO-hCXCR4) came to 1850; in test [3] (cell line R1610-hCXCR4) it was 513.
